# The whole screen tested about 390,000 compounds, of which about 910 (0.23%) were called active. Not shown: some 5% with an inconclusive outcome. The call rests on the fitted dose curve; in most records, active means well fitted inhibition curve with a large enough effect; inconclusive means small, poorly fitted or top-dose-only effect; inactive means no such curve, though single readings can be large or run the other way. The entries are a selection whose mix differs from that of the whole data set.
# Molecular target: Ubiquitin carboxyl-terminal hydrolase 1 (Homo sapiens) (UniProt O94782)
# Sequence of UniProt O94782 (O94782 whole entry, looked up): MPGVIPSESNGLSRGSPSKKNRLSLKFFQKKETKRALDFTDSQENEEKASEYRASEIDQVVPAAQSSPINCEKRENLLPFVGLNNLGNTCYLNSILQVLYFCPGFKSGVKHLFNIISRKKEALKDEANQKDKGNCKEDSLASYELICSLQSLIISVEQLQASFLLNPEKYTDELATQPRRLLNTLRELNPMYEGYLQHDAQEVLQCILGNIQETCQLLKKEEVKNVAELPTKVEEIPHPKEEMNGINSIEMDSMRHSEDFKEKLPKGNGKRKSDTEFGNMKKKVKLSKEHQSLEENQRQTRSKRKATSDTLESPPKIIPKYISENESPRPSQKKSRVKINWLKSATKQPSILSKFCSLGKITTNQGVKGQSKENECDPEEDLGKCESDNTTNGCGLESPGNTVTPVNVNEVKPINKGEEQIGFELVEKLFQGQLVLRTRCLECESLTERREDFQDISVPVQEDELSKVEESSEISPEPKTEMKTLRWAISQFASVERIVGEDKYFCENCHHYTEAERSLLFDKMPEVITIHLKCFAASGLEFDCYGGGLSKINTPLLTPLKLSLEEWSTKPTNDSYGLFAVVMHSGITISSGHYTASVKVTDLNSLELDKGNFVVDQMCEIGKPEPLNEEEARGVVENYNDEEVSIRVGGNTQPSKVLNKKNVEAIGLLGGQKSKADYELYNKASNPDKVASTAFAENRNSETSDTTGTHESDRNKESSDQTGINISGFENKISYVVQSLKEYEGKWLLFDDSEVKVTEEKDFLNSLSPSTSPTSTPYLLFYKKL
# Experiment: Inhibitors of USP1/UAF1: Primary Screen; further: nearly all actives have a fitted effect of over 60% in size
# Settings: recombinant USP1/UAF1, Ub-Rhodamine cleavage fluorescence; activity change, negative = inhibition: at 57.1 µM (top of the series)
# Outline: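 1 nM enzyme complex + cpd, 15 min RT; start with Ub-Rho 150nM final; kinetic fluorescence ex 480/em 540, 6 reads q60 s. Buffer 50mM HEPES pH 7.8, 0.5mM EDTA, 0.1 mg/ml BSA, 1mM TCEP, 0.01% Tween-20.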
# On the % scale 0 is the no-effect control and ±100 the full control effect; potency means the concentration at half of the fitted maximal effect.
SMILES,"activity change, negative = inhibition",Potency
O=C(C[C@H]1C/C=C\CC[C@H](Cc2ccc(F)cc2)C(=O)OC[C@@H]2CCCN2C1=O)N[C@H](CO)Cc1ccccc1,inactive: -22.9%,
C[C@H]1CN([C@@H](C)CO)C(=O)CCCn2nncc2CO[C@@H]1CN(C)Cc1ccccc1C(F)(F)F,inactive: -6.2%,
Cc1ccc(C(=O)Nc2cccc(C(F)(F)F)c2)cc1NC(=O)c1csc(-c2ccncc2)n1,inactive: -22%,
Fc1ccc(-c2nnn3c2nc(NCc2ccccc2)c2ccccc23)cc1,inactive: -1.28%,
CC(=O)C[C@H](O)CC(=O)[C@@H]1OC(=O)CCCCCCc2ccccc21,inactive: -22.6%,
C=CC[C@@H](Cc1ccc(F)cc1)C(=O)OC[C@H]1CCCN1C(=O)[C@@H](CC=C)CC(=O)N[C@@H](CO)Cc1ccccc1,inactive: -32%,
Fc1ccc(Nc2c3c(nc4ccccc24)CCC3)cc1,inactive: -14.5%,
Oc1ccc2ccccc2c1-c1sc(Nc2ccccc2)n[n+]1-c1ccc(F)cc1,inactive: 265%,
O=C(O)c1ccc(S(=O)(=O)/N=C2\C=C(Nc3ccccc3F)C(=O)c3ccccc32)cc1,,active: 2.51 µM
COc1cccc(NC(=O)CSc2nc3ccccc3nc2N2CCOCC2)c1,inactive: -19.8%,
C=CCC[C@H](Cc1ccc(F)cc1)C(=O)OC[C@@H](Cc1c[nH]c2ccccc12)NC(=O)[C@H](CC=C)CC(=O)NCCO,inactive: -36.5%,
CC[C@@H]1C/C=C\Cc2ccccc2[C@@H](C(=O)C[C@H](O)CC(C)=O)OC1=O,inactive: -24.8%,
O=C1N[C@@H](c2ccccc2)COC(=O)[C@H](Cc2ccc(F)cc2)CC/C=C/C[C@@H]1CC(=O)N(CCO)Cc1ccccc1,inactive: -14.4%,
CC(=O)Nc1ccc(NC2=C/C(=N/S(=O)(=O)c3cccs3)c3ccccc3C2=O)cc1,,active: 15.8 µM
CN(C)c1ccc(C=c2c3cc(O)ccc3n3c2cc(-c2ccccc2)[n+]3C)cc1,,active: 28.2 µM
O=C(OCCN1C(=O)c2cccc3c(N4CCOCC4)ccc(c23)C1=O)c1ccc(Cl)cc1,inactive: 477%,
COc1cc(OC)c(NC2=CC(=O)C(=O)c3ccccc32)cc1Cl,,active: 17.8 µM
COc1ccccc1NC(=O)N(C)C[C@@H]1OCc2cn(nn2)CCCC(=O)N([C@@H](C)CO)C[C@H]1C,inactive: -18.9%,
CC(C)(C)OC(=O)C[C@@H]1C/C=C\C[C@H](CC(=O)N(CCO)Cc2ccccc2)C(=O)N[C@H](C(C)(C)C)COC1=O,inactive: 5.11%,
C[C@@H]1CN([C@H](C)CO)C(=O)CCCn2nncc2CO[C@H]1CN(C)Cc1ccccc1,inactive: -0.0087%,
CC(=O)n1cc([C@@H]2C=C(C(=O)Nc3ccccc3)O[C@H](OCc3ccc(CO)cc3)C2)c2ccccc21,inactive: -26.1%,
O=C(N=c1ccn(-c2nc3ccccc3nc2NS(=O)(=O)c2ccccc2)cc1)c1cccs1,inactive: 123%,

SMILES,"activity change, negative = inhibition",Potency
O=C1Nc2ccc(Br)cc2/C1=N/N=C/C1=C(N2CCOCC2)C(=C\c2ccccc2)/CC1,inactive: -13.2%,
COc1ccc(S(=O)(=O)Nc2cccc(-c3ccc(N4CCCCCC4)nn3)c2)cc1OC,inactive: -16.4%,
COc1cccc(S(=O)(=O)N(C)C[C@H]2OCc3cnnn3CCCC(=O)N([C@H](C)CO)C[C@H]2C)c1,inactive: -19.4%,
COC(=O)CCC(=O)OC1(C)C(=O)C2=CN(C3CCCC3)C(c3ccc(OC)cc3)=CC2=C(Br)C1=O (stereo unspecified),,active: 25.1 µM
COc1ccc(S(=O)(=O)/N=C2\C=C(NS(=O)(=O)c3ccccc3)C(=O)c3ccccc32)cc1,,active: 15.8 µM
CC[C@H]1C/C=C\Cc2ccccc2[C@H](C(=O)C[C@@H](O)CC(C)=O)OC1=O,inactive: -17%,
Cc1ccc(NS(=O)(=O)c2ccc3c(c2)n(C)c(=O)n3C)c(C)c1,inactive: -13.7%,
COc1ccc(NC(=O)c2ccco2)cc1NC(=O)c1ccccc1[N+](=O)[O-],inactive: 0.904%,
CCOc1ccc(NC(=O)/C(C#N)=C/c2ccc(N3CCCC3)c(C)c2)cc1,inactive: -24.7%,
Cc1cccc2c(N=Nc3ccccc3)c(O)[nH]c12,inactive: 120%,
Cc1ccc(C(=O)N/C(=C/C=C/c2ccccc2)C(=O)NCc2ccco2)cc1,inactive: -6.26%,
N#Cc1ccc(-c2cccnc2)nc1SCC(=O)c1ccccc1,inactive: 92.3%,
COc1cc2c3nnc(-c4ccc(F)cc4)c-3cn(Cc3cccc(C)c3)c2cc1OC,,active: 31.6 µM
C=CC[C@@H](CC(=O)OC(C)(C)C)C(=O)OC[C@@H]1CCCN1C(=O)[C@H](CC=C)CC(=O)NCCO,inactive: -22.2%,
CC(=O)N1CCCc2cc(S(=O)(=O)N3CCCC(C(=O)N4CCN(c5cc(C)ccc5C)CC4)C3)ccc21 (stereo unspecified),inactive: -19.9%,
NC1=CC(=O)C(=O)c2ccccc21,,active: 15.8 µM
CCOC(=O)c1nn(-c2ccccc2)c(=O)c2c(N)scc12,,active: 17.8 µM
O=[N+]([O-])c1ccc(C=Nc2ccc(Cl)cc2Cl)s1,,active: 28.2 µM
C=CC[C@@H](CC(=O)N[C@H](CO)Cc1ccccc1)C(=O)N[C@H](C)COC(=O)[C@@H](CC=C)CC(=O)OC(C)(C)C,inactive: -21.4%,
CC(C)(C)OC(=O)C[C@H]1C/C=C\C[C@@H](CC(=O)N[C@H](CO)Cc2ccccc2)C(=O)NC[C@H](c2ccccc2)OC1=O,inactive: -18.8%,
COc1ccc(Cn2c(CCC(=O)Nc3ccccc3OC)nc3cccnc32)cc1,inactive: -17.1%,
Cc1cc(C)c(/C=C2\C(=O)Nc3ccccc32)[nH]1,,active: 25.1 µM

SMILES,"activity change, negative = inhibition",Potency
C[C@@H](NC(=O)c1ncn2c1c(=O)[nH]c1ccc(Br)cc12)c1ccccc1,inactive: -12.5%,
O=C(O)/C(=C\c1ccc(Cl)c([N+](=O)[O-])c1)c1ccc(S(=O)(=O)N2CCCCC2)s1,inactive: -9.42%,
O=S(=O)(NCC(Nc1ccc(Cl)cc1)c1ccccc1)c1ccccc1 (stereo unspecified),inactive: -22.5%,
OCC[C@H]1C[C@@H](O)[C@H](O)[C@@]2(OCc3ccccc32)O1,inactive: 6.71%,
CCN(CC)c1ccc(/C=C/C(=O)c2ccc(Br)cc2)cc1,,active: 28.2 µM
Cc1ccccc1Cn1cccc1/C=C1/C(=N)N2C=CSC2=NC1=O,inactive: 31.6%,
C[C@@H]1CN([C@@H](C)CO)C(=O)CCCn2nncc2CO[C@H]1CN(C)Cc1cccc(C(F)(F)F)c1,inactive: -20.5%,
COc1ccc(NC(=O)CCn2c(=O)c3cccn3c3ccccc32)c(OC)c1,inactive: -26.4%,
O=C(O)CSc1cc(NS(=O)(=O)c2ccc(Cl)cc2)c2ccccc2c1O,,active: 25.1 µM
CC(C)(C)OC(=O)C[C@@H]1C/C=C\C[C@@H](CC(=O)N(CCO)Cc2ccccc2)C(=O)N[C@H](Cc2ccccc2)COC1=O,inactive: -16.8%,
O=C(CN1C(=O)COc2ccc(S(=O)(=O)N3CCCCC3)cc21)NCc1ccc(Cl)cc1,inactive: -27%,
O=C(COCc1cc(-c2ccc3c(c2)OCO3)on1)N1CCN(c2ccccc2)CC1,inactive: -8.96%,
N#C/C(=C/c1ccc(N2CCOCC2)o1)c1ccc(Cl)cc1,,active: 28.2 µM
Cc1ccccc1/C=C/c1nc2ccccc2c(=O)n1Cc1ccccc1,inactive: -7.49%,
Nc1ccc(/C=C/C(=O)c2cccs2)cc1,,active: 25.1 µM
Cc1ccccc1CN(C)C[C@H]1OCc2cnnn2CCCC(=O)N([C@@H](C)CO)C[C@@H]1C,inactive: -12.8%,
CCO[C@H]1OC(C(=O)N2CCN(Cc3ccccc3)CC2)=C[C@@H](c2ccc(C(F)(F)F)cc2)[C@@H]1CCCO,inactive: 5.77%,
C[C@H](CO)N1C[C@H](C)[C@@H](CN(C)S(=O)(=O)c2ccc(Cl)cc2)OCc2cnnn2CCCC1=O,inactive: -19.2%,
O=C(NN1C(=O)/C(=C\c2ccc(O)c([N+](=O)[O-])c2)SC1=S)c1ccccc1Cl,inactive: -17.7%,
CCO[C@H]1OC(C(=O)Nc2ccccc2)=C[C@@H](c2ccc(C(F)(F)F)cc2)[C@@H]1CCCO,inactive: -28.4%,
CCCCNC1=CC(=O)C(=O)c2ccccc21,,active: 25.1 µM
O=C1CCN2C=Nc3cccc4ccc1c2c34,,active: 28.2 µM

SMILES,"activity change, negative = inhibition",Potency
Cc1ccc2nc3sc(C(=O)NCc4ccco4)c(N)c3cc2c1,inactive: 367%,
Cc1ccc(NC(=O)c2sc3nc4c(c(-c5ccco5)c3c2N)CCC4)cc1,inactive: 249%,
O=C(NCCS(=O)(=O)N1CCN(c2ccc(F)cc2)CC1)C1CC(=O)N(c2ccccc2)C1 (stereo unspecified),inactive: -22.8%,
CC(C)OC(=O)N(C)C[C@@H]1OCc2cnnn2CCCC(=O)N([C@H](C)CO)C[C@H]1C,inactive: 1.75%,
CCOC(=O)Cn1c(=O)oc2cc(S(=O)(=O)NC(C)c3ccccc3)ccc21 (stereo unspecified),inactive: -11.2%,
C/C(Sc1nnc(Cc2ccccc2)o1)=C(/O)c1ccccc1,inactive: 8.97%,
COc1ccc(/C=C2\CCCC(C(=O)C(F)(F)F)=C2O)cc1,inactive: 113%,
C/C(=N\Nc1ccc([N+](=O)[O-])cc1)c1ccc(-n2nncc2C)cc1,inactive: 74.9%,
O=C(NCCCN1CCN(c2ccccc2)CC1)c1sc2ncccc2c1-n1cccc1,inactive: 2.2%,
CN(C)CCC[C@]1(c2ccc(F)cc2)OCc2cc(C#N)ccc21,inactive: -11.2%,
Cc1cc(/C=C2/NC(=O)NC2=O)c(C)n1-c1ccc(N2CCOCC2)cc1,inactive: -2.39%,
C[C@H](CO)N1C[C@H](C)[C@@H](CN(C)S(=O)(=O)c2cn(C)cn2)Oc2c(NS(=O)(=O)c3ccc(F)cc3)cccc2C1=O,inactive: 3.26%,
NC(=O)N1c2ccccc2C=Cc2ccccc21,inactive: -7.6%,
COC(=O)c1cc(NC(=O)c2ccccc2)c(=O)oc1/C=C/Nc1ccc(Oc2ccccc2)cc1,inactive: 306%,
CN(C)c1ccc(C=C2SC(=S)N(Cc3ccco3)C2=O)cc1,inactive: 207%,
C=CC[C@@H](CC(=O)N(CCO)Cc1ccccc1)C(=O)N[C@@H](COC(=O)[C@@H](CC=C)CC(=O)OC(C)(C)C)Cc1c[nH]c2ccccc12,inactive: -18.3%,
CC(Cc1ccccc1)Nc1ncnc2c1ncn2C1OC(CO)C(O)C1O (stereo unspecified),inactive: -21.2%,
Cc1cccc(NC(=O)c2ccc(NCCc3ccccc3)c([N+](=O)[O-])c2)c1,inactive: 43.9%,
O=C(NCC1CCCO1)/C(=C/c1ccccc1F)NC(=O)c1ccccc1 (stereo unspecified),inactive: 2.07%,
CCc1nc2ccc(C(=O)NCCc3ccccc3OC)cc2nc1CC,inactive: -9.96%,
